Where two headings read alike, the source gives them in different places.
Tested on: wild type yeast carrying plasmid SEC14 variants
Experiment: Growth inhibition titration of yeast re-transformed with plasmids coding for SEC14 variants
Conditions: Saccharomyces cerevisiae, 18 h

## COC(=O)C1CC2c3ccc([N+](=O)[O-])c4c3C(CC2N(C)C1)CN4C(=O)OCC(Cl)(Cl)Cl (centres unmarked) [NGx04]
read-out: IC50, SEC14 Y111H
  IC50: 236 µM
read-out: IC50, SEC14 Y151H
  IC50: 260 µM

— PMC5147771, “High-Resolution Genetics Identifies the Lipid Transfer Protein Sec14p as Target for Antifungal Ergolines” (PLoS Genetics, 2016)
